Results reported in the RNAGym collection of RNA variant scans (doi:10.1093/nar/gkz1192).
The source gives no read counts; variants with many changes may rest on few reads.

B1: CPEB3 Ribozyme (parent)
chain: UAACAGGGGGCCACAGCAGAAGCGUUCACGUCGCAGCCCCUGUCAGAUUCUGGUGAAUCUGCGAAUUCUGCUGUAUAUCUC

Variants of: B1
Test: self-cleavage, relative activity (ratio to wild type); higher = more cleavage; in vitro, sequencing
Outline: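 Relative activity compares each variant's cleaved/total read fraction with that of the unmutated ribozyme. To get these fractions, barcoded CPEB3 ribozyme libraries from rounds of error-prone PCR were transcribed with T7 RNA polymerase for 5 hours at 37°C and then given 15 min of DNase I treatment before EDTA was added. The RNAs were reverse transcribed with template switching and sequenced on Illumina, and DNA sequencing linked barcodes to variants. A minimum of 5 reads applied, and three batches were averaged.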

Variant | self-cleavage
UAACAGGGGGCCACGGCAGAAGCGAUCACGUCGCAGCCCCUGUCAGAUUCUGGUGAACCUGCGAAUUCUGCGGUAUAUCUC [A15G U25A U58C U72G] | 0.14
UAACAGGGGGCCACGGCAGAAGCGCUAACGCCGCAGCCCCUGUAAGAUUCUGGUGAAUCUGCGAAUUCUGCAGUAUAUCUC [A15G U25C C27A U31C C44A U72A] | 0.11
UAACAGGGGGCCACGGCAGAAGCGCCCACGUCGCAGCCCCUGUCAGAUUCAGGUGAAUCUGCGAUUUCUGCUGUAUAUCUC [A15G U25C U26C U51A A65U] | 0.4
UAACAGGGGGCCACGGCAGAAGCGAUCACGACGCUGCCCCUGUCAGAUUCUGGUGAAUCUGCGAGUUCUGCUGCAUAUCUC [A15G U25A U31A A35U A65G U74C] | 0.07
UAACAGGGGGCCACGGCAGAAGCGUUCACGUCGCAGCCCCUAUCAGAUUCUGGUGGAUCUGCGAAUUCCGCUGUAUAUCCC [A15G G42A A56G U69C U80C] | 0.29
UAACAGGGGGCCACGGCAGAAGCGUUCACGUCGCAGCCCCUGUCAGAUUCUGGUGAAUCUGCAAGUUCUGCUGUAUAUCUC [A15G G63A A65G] | 0.19
UAACAGGGGGCCACGGCAGAAGCGUUCACGUCGCAGCCCCUGUCAGAUUCUGGUGAAUCUGCAAUUUCUGCUGUAUAUCUC [A15G G63A A65U] | 0.8
UAACAGGGGGCCACGGCAGAAGCGAUCACGUCGCAGCCCCCGUCGGAUUCUGGUGAAUCAGCGAAUUCUGCUGUAUAUCUC [A15G U25A U41C A45G U60A] | 0.08
UAACAGGGGGCCACGGCAGAAGCGCUCACGUCGCAGCCCCUGUCAGAUUCUGGUGAAUCUGCGAAUCCUGCUGUAUUUCUC [A15G U25C U67C A77U] | 0.18
UAACAGGGGGCCACGGCAGAAGCGUUCACGUCGCAGCCCCUGUCAUAUUCCGGUGAAUCUGCAAAUUCUGCUGUAUAUCUC [A15G G46U U51C G63A] | 0.16
UAACAGGGGGCCACGGCAGAAGCGUUCACGUCACAGCCCCUGUCGGAUUCAGGUGAAUCUGCGAAUUCUGCUGUAUAUCUC [A15G G33A A45G U51A] | 0.09
UAACAGGGGGCCACGGCAGAAGCGCCCACGUCGCAGCCCCUGUCAGAUUCUCGUGAAUCUGCGAAUCCUGCUGUAUAUCUC [A15G U25C U26C G52C U67C] | 0.12
UAACAGGGGGCCACGGCAGAAGCGCUCACGUCGCAGCCCCUGUCAGAUCCUGGUGAAUCAGCGAGUUCUGCUGUAUAUCUC [A15G U25C U49C U60A A65G] | 0.07
UAACAGGGGGCCACGGCAGAAGCGUUCACGUCGCAACCCCUGCCAGAUUCAGGUGAAUCUGCGAAUUCUGCCGUAUGUCUC [A15G G36A U43C U51A U72C A77G] | 0.09
UAACAGGGGGCCACGGCAGAAGCGAUCACGUCGCAGCCCCUGUCAGAUUCAGGUGAAUCUGCAGAUUCUGCGGUAGAUCUC [A15G U25A U51A G63A A64G U72G U76G] | 0.15
UAACAGGGGGCCACGGCAGAAGCGUUCACGUCGCAGCCCCUGUCAGAUUCUGGUAAAUCUGCGGAUUCUGCUGUAUAUCUC [A15G G55A A64G] | 0.16
UAACAGGGGGCCACGGCAGAAGCGUUCACGUCGCAGCCCCUGUCAGAUUCUCGGGAGUCUGCGAACUAUGCUGUAUAUCUC [A15G G52C U54G A57G U66C C68A] | 0.07

Variant | self-cleavage
UAACAGGGGGCCACGGCAGAAGCGCUCACGUCGCAGCCCCUGUCAGAUUCUGGUGAAUCUGCGAACUCAGCUGUAUAUCUC [A15G U25C U66C U69A] | 0.14
UAACAGGGGGCCACGGCAGAAGCGAUCACGACGCAGCUCCUGUCAGAUUCUGGUGAAUCCGCGAAUUCUGCUGUAUAUCUC [A15G U25A U31A C38U U60C] | 0.07
UAACAGGGGGCCACGGCAGAAGCGCUCACGUCGCAGCCCCUGUCAGAUUUUGGUGAAUCCGCGAAUUCUGCUGUAUAUCUC [A15G U25C C50U U60C] | 0.2
UAACAGGGGGCCACGGCAGAAGCGUUCACGUCGCACCCCCAGUCAGAUACUGGUGAAUCUGCGAAUUCUGCUGUAUAUCUC [A15G G36C U41A U49A] | 0.13
UAACAGGGGGCCACGGCAGAAGCGUUCACGUCUCAGCCCCUGUCGGAUUCUGGUGAAUCUGCGAAUUCAGCUGUAUAUCUC [A15G G33U A45G U69A] | 0.06
UAACAGGGGGCCACGGCAGAAGCGCUCACGUCGCAGCCCCUAUCAGAUACUGGUGAAUCCGCGAAUUCUGCUGUAUAUCUC [A15G U25C G42A U49A U60C] | 0.1
UAACAGGGGGCCACGGCAGAAGCGUUCACGUCACAGCCCCUGUCAGAUUCUGGUGAAUCUGCGAAUUCUGCUGUGUAUCUC [A15G G33A A75G] | 0.08
UAACAGGGGGCCACGGCAGAAGCGCUCACGUCGCAGCCCCUGUCCGAAUCUGGUGAAUCUGCGAAUUCUGCUGUAUAUCUC [A15G U25C A45C U48A] | 0.17
UAACAGGGGGCCACGGCAGAAGCGAUCACGUCGCAGCCCCUGUCAGAUUCUGGUGAAUCUGCGAAUUCUGCAGUAUAACUC [A15G U25A U72A U78A] | 0.2
UAACAGGGGGCCACGGCAGAAGCGCUCACGUCGCAGCCCCUGUCAGUUUCUGGUGAAUCUGCGAAUUCUGCUGUGUAUCUC [A15G U25C A47U A75G] | 0.33
UAACAGGGGGCCACGGCAGAAGCGCCCACGUCGCAGCCCCUGUCAGAUUCUGGUGAAUCUGCGAACUCUGCUGUAUAUCUC [A15G U25C U26C U66C] | 0.35
UAACAGGGGGCCACGGCAGAAGCGCUCACGUCGCAGCCCCUGUCAGAUUCUGGUGAAUCCGUGAAUUCUGCUGUAUAUCUC [A15G U25C U60C C62U] | 0.19
UAACAGGGGGCCACGGCAGAAGCGCUCACGUCGCAGCCCCUGUCAGACUCUGGUGAAUCUGCGAAUUCUGCUGUAUAUCUC [A15G U25C U48C] | 0.12
UAACAGGGGGCCACGGCAGAAGCGCUCACGUCGCAGCCCCCGUCCGAUUCUGGUGAAUCUGCGAAUUCUUCUGUAUAUCUC [A15G U25C U41C A45C G70U] | 0.51
UAACAGGGGGCCACGGCAGAAGCGAUCACGUCGCAGCCCCUGUCAGAUCCUGGUGAACCUGCGAAUUCUGCUGUAUAUCUC [A15G U25A U49C U58C] | 0.21
UAACAGGGGGCCACGGCAGAAGCGCUCACGUCGCGGCCCCUGUCAGGUUCUGGUGAAUCUGCGAAUUCUGCUGUAUAUCCC [A15G U25C A35G A47G U80C] | 0
UAACAGGGGGCCACGGCAGAAGCGCUCACGUCGCAGCUCCUGUCAGAAUCUGGUGAAUCUGCGAAUUCUGCUGUAUAUCUC [A15G U25C C38U U48A] | 0.26
